For test [1], the target named is T1, Guanine nucleotide exchange factor (GEF)-H1 (mouse (endogenous in BMDMs)) (UniProt Q60875).
T1 sequence: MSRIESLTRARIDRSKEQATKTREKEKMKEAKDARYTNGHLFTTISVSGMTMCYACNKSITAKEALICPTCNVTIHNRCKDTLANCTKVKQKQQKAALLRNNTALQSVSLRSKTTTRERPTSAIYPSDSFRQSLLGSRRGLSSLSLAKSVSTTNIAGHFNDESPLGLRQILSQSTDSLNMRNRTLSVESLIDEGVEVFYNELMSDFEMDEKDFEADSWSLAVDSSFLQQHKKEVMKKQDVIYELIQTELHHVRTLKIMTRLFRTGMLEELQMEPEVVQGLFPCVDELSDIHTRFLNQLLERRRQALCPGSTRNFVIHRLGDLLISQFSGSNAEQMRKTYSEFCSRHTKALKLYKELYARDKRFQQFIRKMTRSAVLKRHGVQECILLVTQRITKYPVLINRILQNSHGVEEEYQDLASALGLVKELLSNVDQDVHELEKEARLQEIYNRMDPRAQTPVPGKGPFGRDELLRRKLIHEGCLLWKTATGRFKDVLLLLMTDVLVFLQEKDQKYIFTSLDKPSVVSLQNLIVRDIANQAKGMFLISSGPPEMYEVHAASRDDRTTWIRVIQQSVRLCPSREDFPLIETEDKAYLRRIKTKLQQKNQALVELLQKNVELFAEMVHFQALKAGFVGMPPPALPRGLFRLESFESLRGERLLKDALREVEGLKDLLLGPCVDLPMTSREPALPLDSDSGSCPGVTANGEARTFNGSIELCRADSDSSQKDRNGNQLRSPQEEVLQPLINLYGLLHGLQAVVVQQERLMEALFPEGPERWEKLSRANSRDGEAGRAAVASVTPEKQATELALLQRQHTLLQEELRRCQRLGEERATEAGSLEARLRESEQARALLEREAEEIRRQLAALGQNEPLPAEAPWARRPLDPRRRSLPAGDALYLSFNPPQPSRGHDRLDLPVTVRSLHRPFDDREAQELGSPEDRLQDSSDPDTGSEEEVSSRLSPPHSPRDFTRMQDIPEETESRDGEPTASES
Kind of test: co-IP; immunoprecipitation of endogenous GEF-H1 (GEF-H1 antibody, protein G agarose) from lysates of mouse BMDMs stimulated with 25 μM GMTriP-K (time course, 1 to 18 hours); Pierce IP lysis buffer, 4 °C overnight; immunoblot.

Chains of the proteins cited; added tags and fusions are not shown.
UniProt Q9CQS8: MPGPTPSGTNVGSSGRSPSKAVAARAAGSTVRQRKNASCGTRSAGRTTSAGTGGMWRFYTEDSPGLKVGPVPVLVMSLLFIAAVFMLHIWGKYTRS

The target in test [2] is T1, Guanine nucleotide exchange factor (GEF)-H1 (mouse (endogenous in BMDMs)). As to the kind of experiment: condition: only macrophages without GMTriP-K (unstimulated, 25μg /mL cdi-GMP or 100ng/mL LPS); co-IP; immunoprecipitation with the N-terminus GEF-H1 antibody from lysates of mouse macrophages (BMDMs) without GMTriP-K: unstimulated, 25 μg/mL cdi-GMP or 100 ng/mL LPS; immunoblot. For orientation: In western blotting, separated proteins are transferred to a membrane and probed.

The target in test [3] is T2, Peptidoglycan recognition protein 1 (PGLYRP-1) (mouse (endogenous in BMDMs)) (UniProt O88593).
T2 sequence: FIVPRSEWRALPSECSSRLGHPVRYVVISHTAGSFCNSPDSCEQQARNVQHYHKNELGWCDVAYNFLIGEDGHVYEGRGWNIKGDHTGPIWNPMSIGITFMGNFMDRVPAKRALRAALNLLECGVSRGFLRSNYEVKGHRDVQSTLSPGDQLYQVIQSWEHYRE
Kind of test: co-IP; immunoprecipitation with an antibody against PGLYRP-1 from lysates of mouse BMDMs after GMTriP-K stimulation; Pierce IP lysis buffer, protein G agarose; immunoblot.

Test [4] concerns the target T3, NOD2 (mouse (endogenous in BMDMs)) (UniProt Q8K3Z0).
T3 sequence: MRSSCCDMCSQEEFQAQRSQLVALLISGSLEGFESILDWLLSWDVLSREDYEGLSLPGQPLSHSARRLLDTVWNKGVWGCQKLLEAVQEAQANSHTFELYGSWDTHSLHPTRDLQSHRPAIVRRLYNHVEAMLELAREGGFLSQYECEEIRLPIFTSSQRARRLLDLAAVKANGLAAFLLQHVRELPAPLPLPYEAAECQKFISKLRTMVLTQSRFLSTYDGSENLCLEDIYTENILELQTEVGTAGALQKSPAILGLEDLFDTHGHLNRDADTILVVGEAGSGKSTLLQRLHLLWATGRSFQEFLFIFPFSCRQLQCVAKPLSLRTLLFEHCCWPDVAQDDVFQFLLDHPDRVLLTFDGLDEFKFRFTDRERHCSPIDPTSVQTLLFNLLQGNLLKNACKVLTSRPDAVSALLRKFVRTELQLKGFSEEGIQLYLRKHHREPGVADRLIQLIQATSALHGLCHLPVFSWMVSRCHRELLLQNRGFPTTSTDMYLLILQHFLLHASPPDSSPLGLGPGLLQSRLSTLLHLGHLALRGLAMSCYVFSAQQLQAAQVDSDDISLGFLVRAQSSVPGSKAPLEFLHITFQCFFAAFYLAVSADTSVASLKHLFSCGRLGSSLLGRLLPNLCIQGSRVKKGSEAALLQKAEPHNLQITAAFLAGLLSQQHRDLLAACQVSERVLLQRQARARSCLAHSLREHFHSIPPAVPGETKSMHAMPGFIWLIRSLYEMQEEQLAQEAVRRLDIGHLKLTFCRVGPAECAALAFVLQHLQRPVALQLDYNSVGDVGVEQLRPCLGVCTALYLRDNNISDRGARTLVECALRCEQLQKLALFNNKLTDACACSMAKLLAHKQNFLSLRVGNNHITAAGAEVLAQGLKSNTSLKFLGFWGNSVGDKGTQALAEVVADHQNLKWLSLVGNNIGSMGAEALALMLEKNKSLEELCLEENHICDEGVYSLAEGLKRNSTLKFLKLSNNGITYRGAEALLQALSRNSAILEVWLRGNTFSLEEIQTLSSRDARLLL
As to the kind of experiment: co-IP; immunoprecipitation with an antibody against NOD2 from lysates of mouse BMDMs after GMTriP-K stimulation; Pierce IP lysis buffer, protein G agarose; immunoblot.

Test [5] deals with T1, Guanine nucleotide exchange factor (GEF)-H1 (mouse (endogenous in BMDMs)). Kind of test: co-IP; immunoprecipitation with the N-terminus GEF-H1 antibody from lysates of mouse macrophages (BMDMs) without GMTriP-K: unstimulated, 25 μg/mL cdi-GMP or 100 ng/mL LPS; immunoblot.

From publication PMC11527351 come the findings set out here.

Results are given in words; binding and its absence hold for the method and conditions named. Binding seen in cells or lysates may run through a third protein. Some entries that bind do so weakly or less than the wild type.

Consider Sec61β (from UniProt Q9CQS8 1-96), for which the binding entry in test [1] was “binds”; in test [2], “no binding”.

B1: NOD2 (protein, UniProt Q8K3Z0 1-1020)
chain: MRSSCCDMCSQEEFQAQRSQLVALLISGSLEGFESILDWLLSWDVLSREDYEGLSLPGQPLSHSARRLLDTVWNKGVWGCQKLLEAVQEAQANSHTFELYGSWDTHSLHPTRDLQSHRPAIVRRLYNHVEAMLELAREGGFLSQYECEEIRLPIFTSSQRARRLLDLAAVKANGLAAFLLQHVRELPAPLPLPYEAAECQKFISKLRTMVLTQSRFLSTYDGSENLCLEDIYTENILELQTEVGTAGALQKSPAILGLEDLFDTHGHLNRDADTILVVGEAGSGKSTLLQRLHLLWATGRSFQEFLFIFPFSCRQLQCVAKPLSLRTLLFEHCCWPDVAQDDVFQFLLDHPDRVLLTFDGLDEFKFRFTDRERHCSPIDPTSVQTLLFNLLQGNLLKNACKVLTSRPDAVSALLRKFVRTELQLKGFSEEGIQLYLRKHHREPGVADRLIQLIQATSALHGLCHLPVFSWMVSRCHRELLLQNRGFPTTSTDMYLLILQHFLLHASPPDSSPLGLGPGLLQSRLSTLLHLGHLALRGLAMSCYVFSAQQLQAAQVDSDDISLGFLVRAQSSVPGSKAPLEFLHITFQCFFAAFYLAVSADTSVASLKHLFSCGRLGSSLLGRLLPNLCIQGSRVKKGSEAALLQKAEPHNLQITAAFLAGLLSQQHRDLLAACQVSERVLLQRQARARSCLAHSLREHFHSIPPAVPGETKSMHAMPGFIWLIRSLYEMQEEQLAQEAVRRLDIGHLKLTFCRVGPAECAALAFVLQHLQRPVALQLDYNSVGDVGVEQLRPCLGVCTALYLRDNNISDRGARTLVECALRCEQLQKLALFNNKLTDACACSMAKLLAHKQNFLSLRVGNNHITAAGAEVLAQGLKSNTSLKFLGFWGNSVGDKGTQALAEVVADHQNLKWLSLVGNNIGSMGAEALALMLEKNKSLEELCLEENHICDEGVYSLAEGLKRNSTLKFLKLSNNGITYRGAEALLQALSRNSAILEVWLRGNTFSLEEIQTLSSRDARLLL
As to B1, the binding result in test [1] was “binds”; in test [2] it was “no binding”; in test [3] it was “binds”.

B2: Peptidoglycan recognition protein 1 (PGLYRP-1) (protein, UniProt O88593 19-182)
chain: FIVPRSEWRALPSECSSRLGHPVRYVVISHTAGSFCNSPDSCEQQARNVQHYHKNELGWCDVAYNFLIGEDGHVYEGRGWNIKGDHTGPIWNPMSIGITFMGNFMDRVPAKRALRAALNLLECGVSRGFLRSNYEVKGHRDVQSTLSPGDQLYQVIQSWEHYRE
Regarding B2, the binding result is reported as “binds” in test [1], “no binding” in test [2] and “binds” in test [4].

B3: cis-Golgi matrix protein 130 (GM130/GOLGA2) (protein, UniProt Q921M4 1-999)
chain: MWPPRFPPPRPGMSEETRQSKLAAAKKKLREYQQKNSPGVPAGAKKKKKIKNGHSPERPTASDCQSPENVPTDHIAPAPPTAATDTMFLGVTPSPDADLTQSHDAGNCSNLMEETKTFSSTESLRQLSQQLNGLVSESTSYINGEGLTSSNMKELENRYQELAVALDSSYVTNKQLSSTIEELKQQNQDTLDQLEKEKKDYQQKLAKEQGSLREQLQVHIQTIGILVSEKAELQTALAHTQQAARQKAGESEDLASRLQSSRQRVGELERTLSTVSTQQKQADRYNKDLTKERDALKLELYKNSKSNEDLRQQNSELEEKLRVLVAEKAAAQLGVEELQKKLEMSELLLQQFSSQSSAAGGNEQLQHAMEERAQLETHVSQLMESLKQLQVERDQYAENLKGESAMWQQRVQQMAEQVHTLKEEKEHRERQVQELETSLAALRSQMEEPPPPEPPAGPSEAEEQLQGEVEQLHKELERLTGQLRAQVQDNESLSHLNREQEGRLLELEREAQRWSEQAEERKQILESMQSDRTTISRALSQNRELKEQLAELQNGFVRLTNENMEITSALQSEQHVKKELARKLGELQERLGELKETVELKSQEAQGLQEQRDQCLSHLQQYAAAYQQHLAAYEQLTSEKEAIHKQLLLQTQLMDQLQHEEVQGKMAAELARQELQEAQERLKATSQENQQLQAQLSLLVLPGEGDVDQEEEDEEVPQSSLAIPEDLDSREAMVAFFNAAIARAEEEQARLRVQLKEQKARCRSLSHLAAPVQSKLEKEAVVPRNVDDSASEESNQALHVAMEKLQSRFLEVMQEKVELKERVEELEHCCIQLSGETDTIGEYIALYQNQRAVLKARHLEKEEYISRLAQDKEEMKVKLLELQELVLRLVNERNEWQGKFLAVSQNPGDVLTPVPTGSQEFGAADQQDDLREVSLADDIEPAQGEAGVPAPHENPTAQQIMQLLREIQNPRERPGLGSNPCIPFFYRADENDEVKIMVV
Take B3: the binding result in test [1] and in test [5] was “binds” in each case.

B4: Guanine nucleotide exchange factor (GEF)-H1 (protein, UniProt Q60875 1-985)
chain: MSRIESLTRARIDRSKEQATKTREKEKMKEAKDARYTNGHLFTTISVSGMTMCYACNKSITAKEALICPTCNVTIHNRCKDTLANCTKVKQKQQKAALLRNNTALQSVSLRSKTTTRERPTSAIYPSDSFRQSLLGSRRGLSSLSLAKSVSTTNIAGHFNDESPLGLRQILSQSTDSLNMRNRTLSVESLIDEGVEVFYNELMSDFEMDEKDFEADSWSLAVDSSFLQQHKKEVMKKQDVIYELIQTELHHVRTLKIMTRLFRTGMLEELQMEPEVVQGLFPCVDELSDIHTRFLNQLLERRRQALCPGSTRNFVIHRLGDLLISQFSGSNAEQMRKTYSEFCSRHTKALKLYKELYARDKRFQQFIRKMTRSAVLKRHGVQECILLVTQRITKYPVLINRILQNSHGVEEEYQDLASALGLVKELLSNVDQDVHELEKEARLQEIYNRMDPRAQTPVPGKGPFGRDELLRRKLIHEGCLLWKTATGRFKDVLLLLMTDVLVFLQEKDQKYIFTSLDKPSVVSLQNLIVRDIANQAKGMFLISSGPPEMYEVHAASRDDRTTWIRVIQQSVRLCPSREDFPLIETEDKAYLRRIKTKLQQKNQALVELLQKNVELFAEMVHFQALKAGFVGMPPPALPRGLFRLESFESLRGERLLKDALREVEGLKDLLLGPCVDLPMTSREPALPLDSDSGSCPGVTANGEARTFNGSIELCRADSDSSQKDRNGNQLRSPQEEVLQPLINLYGLLHGLQAVVVQQERLMEALFPEGPERWEKLSRANSRDGEAGRAAVASVTPEKQATELALLQRQHTLLQEELRRCQRLGEERATEAGSLEARLRESEQARALLEREAEEIRRQLAALGQNEPLPAEAPWARRPLDPRRRSLPAGDALYLSFNPPQPSRGHDRLDLPVTVRSLHRPFDDREAQELGSPEDRLQDSSDPDTGSEEEVSSRLSPPHSPRDFTRMQDIPEETESRDGEPTASES
With B4, the binding entry in test [4] and in test [3] was “binds” throughout.
